The text below walks through data of PubChem BioAssay AID1346428 (National Center for Advancing Translational Sciences (NCATS), 2018).

Hit rate of the full screen: of about 48,000 compounds, about 1,200 (2.5%) were called active. About 2% were inconclusive and are not listed.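 The calls were made as follows: active = activation of at least 60% and not above a set upper limit (about 1 call in 100 departs from these limits); inconclusive = activation of 40% to 60%, or above that upper limit; inactive = activation under 40%.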 The list shows a part of the results.

The target of the test is Probable G-protein coupled receptor 32 (Homo sapiens) (UniProt O75388). In words: qHTS for Agonists of Human Resolvin D1 Receptor DRV1. Also: 0% is about no effect. The settings on record: CHO-K1 GPR32 beta-arrestin PathHunter luminescence, 90 min; at 76.9 µM; stronger effect = higher value; zero percent set by DMSO-only wells. The method in brief: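 Luminescent readout of beta-Gal complementation quantifies ligand-induced beta-arrestin association with GPR32 in CHO-K1 cells; 90 min compound incubation at 37 °C, detection 1 h at room temperature.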
Chain of UniProt O75388 (O75388 whole entry, looked up): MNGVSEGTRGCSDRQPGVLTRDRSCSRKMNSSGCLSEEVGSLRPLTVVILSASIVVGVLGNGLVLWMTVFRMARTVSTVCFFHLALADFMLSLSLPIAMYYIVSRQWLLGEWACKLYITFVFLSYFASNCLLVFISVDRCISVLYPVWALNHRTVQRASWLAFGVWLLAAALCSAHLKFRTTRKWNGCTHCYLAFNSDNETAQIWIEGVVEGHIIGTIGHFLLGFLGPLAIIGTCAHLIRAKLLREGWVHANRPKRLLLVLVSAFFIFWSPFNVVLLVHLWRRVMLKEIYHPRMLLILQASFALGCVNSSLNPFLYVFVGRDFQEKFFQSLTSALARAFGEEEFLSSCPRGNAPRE
As to `Cc1ccc(NC(=O)C2CCCN(S(=O)(=O)c3cccc4cccnc34)C2)cc1Cl` (stereo not drawn), the activation is inactive: -12.7%.
With `CNS(=O)(=O)c1cn(CC(=O)Nc2ccc(F)cc2F)cc1S(=O)(=O)NC`, the activation is inactive: -8.42%.
Take `Cc1ccc(N2CC(c3nnc(Cc4ccc(Cl)cc4)o3)CC2=O)cc1` (stereo not drawn): the activation was inactive: -8.43%.
With `CCCCNc1sc(S(=O)(=O)CC)nc1S(=O)(=O)c1ccc(C)cc1`, the activation was inactive: -14.1%.
Consider `CCc1ccccc1NC(=O)CSc1nnc(-c2cc(OC)c(OC)c(OC)c2)o1`, for which the activation is inactive: 8.57%.
In the case of `CC(=O)Nc1cc(C(=O)NCc2ccccc2)ccc1Sc1ccc(C)cc1`, the activation is inactive: -3.2%.
Take `Cc1cccc(N2CCN(C(=O)Cn3c(=O)c4cccn4c4ccc(F)cc43)CC2C)c1` (stereo not drawn): the activation is inactive: -37.3%.
Regarding `CCN(c1ccc(OC)cc1)S(=O)(=O)c1c(C(=O)N2CCCCCC2)c(C)n(C)c1C`, the activation was inactive: -14.5%.
The same measure for `Cc1cccc(C(=O)Nc2ccc(-c3nc4ccccc4s3)c(C)c2)c1`: inactive: 11.8%; for `Cc1ccc(CNC(=O)C(C(C)C)N2Cc3ccccc3C2=O)cc1` (stereo not drawn): inactive: -7.72%.
Turning to `O=C(NC1CCCCC1)c1ccc(Cn2c(SCc3cccc(F)c3)nc3cccnc32)cc1`, the activation is inactive: -23.3%.
For `CN(C(=O)CSc1cn(CC(=O)N2CCCCCC2)c2ccccc12)c1ccccc1`, the activation was inactive: -12.9%.
Regarding `O=C(CCc1nc(-c2ccccc2F)no1)Nc1cccc(C(F)(F)F)c1`, the activation was inactive: 23.4%.
With `Cc1ccc(CC(=O)N(Cc2nc(-c3ccc(C)cc3)no2)C(C)C)cc1` the figure was inactive: 23.6%.
Turning to `Cc1ccc(C)c(N2CCN(C(=O)c3cccc(-n4c(C)nc5cccnc54)c3)CC2)c1`, the activation is inactive: 37.2%.
`Cc1nn(-c2ccccc2)c(OC(=O)c2ccc(Br)cc2)c1S(=O)(=O)c1ccccc1`: the activation was inactive: -1.84%.
Regarding `CCOCCCNC(=O)c1cnc2sc(N3CCCCCC3)nn2c1=O`, the activation is inactive: -0.288%.
As to `CCOc1ccc(NC(=O)Cn2c(=O)n(CCc3ccccc3)c(=O)c3c4c(sc32)CN(C(C)=O)CC4)cc1`, the activation is inactive: -10.1%.
With `CCc1ccc(NC(=O)CSC2=Nc3ccccc3C3=NC(CCC(=O)NCc4ccccc4OC)C(=O)N23)cc1` (stereo not drawn) the figure was inactive: -15.5%; with `CCOc1ccc(OCC)c(NC(=O)c2cc(C)nc3c2c(C)nn3-c2cccc(Cl)c2C)c1`, inactive: -23.5%; with `Cn1c(=O)c2sccc2n2c(CCCC(=O)Nc3ccc(F)cc3F)nnc12`, inactive: -2.93%.
As to `COc1ccc2c(c1)c1c(c(=O)n(-c3ccccc3C)c(=O)n1Cc1ccccc1C)n2C`, the activation was inactive: 5.23%.
As to `COc1ccc(OC)c(NC(=O)CN2C(=O)CC(c3ccco3)Sc3ccccc32)c1` (stereo not drawn), the activation is inactive: -10.7%.
